The record followed here is PMC8027439.

Sequences of proteins named here, by UniProt entry; tags and fusion partners are left off.
UniProt Q13263: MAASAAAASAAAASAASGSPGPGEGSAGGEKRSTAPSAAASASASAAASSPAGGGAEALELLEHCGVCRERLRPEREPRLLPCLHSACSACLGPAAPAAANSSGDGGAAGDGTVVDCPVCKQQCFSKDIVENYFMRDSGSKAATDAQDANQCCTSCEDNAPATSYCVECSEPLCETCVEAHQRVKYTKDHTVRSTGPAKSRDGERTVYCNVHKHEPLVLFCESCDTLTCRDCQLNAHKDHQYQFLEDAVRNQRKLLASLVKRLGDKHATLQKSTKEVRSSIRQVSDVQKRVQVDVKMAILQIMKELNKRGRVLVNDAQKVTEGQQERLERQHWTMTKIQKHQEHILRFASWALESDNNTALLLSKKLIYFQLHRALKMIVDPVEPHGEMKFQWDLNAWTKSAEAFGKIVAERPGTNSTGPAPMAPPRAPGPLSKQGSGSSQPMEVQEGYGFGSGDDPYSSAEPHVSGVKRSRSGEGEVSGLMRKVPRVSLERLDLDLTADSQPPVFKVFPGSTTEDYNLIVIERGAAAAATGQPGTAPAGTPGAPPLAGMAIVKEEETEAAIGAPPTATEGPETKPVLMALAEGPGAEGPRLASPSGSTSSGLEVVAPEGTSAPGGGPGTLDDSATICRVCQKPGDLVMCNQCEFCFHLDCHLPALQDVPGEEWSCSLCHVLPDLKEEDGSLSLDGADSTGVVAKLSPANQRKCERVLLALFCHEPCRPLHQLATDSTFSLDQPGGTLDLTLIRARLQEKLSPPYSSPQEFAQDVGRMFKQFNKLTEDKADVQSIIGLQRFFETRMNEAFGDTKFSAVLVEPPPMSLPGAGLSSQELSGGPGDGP
UniProt Q14739: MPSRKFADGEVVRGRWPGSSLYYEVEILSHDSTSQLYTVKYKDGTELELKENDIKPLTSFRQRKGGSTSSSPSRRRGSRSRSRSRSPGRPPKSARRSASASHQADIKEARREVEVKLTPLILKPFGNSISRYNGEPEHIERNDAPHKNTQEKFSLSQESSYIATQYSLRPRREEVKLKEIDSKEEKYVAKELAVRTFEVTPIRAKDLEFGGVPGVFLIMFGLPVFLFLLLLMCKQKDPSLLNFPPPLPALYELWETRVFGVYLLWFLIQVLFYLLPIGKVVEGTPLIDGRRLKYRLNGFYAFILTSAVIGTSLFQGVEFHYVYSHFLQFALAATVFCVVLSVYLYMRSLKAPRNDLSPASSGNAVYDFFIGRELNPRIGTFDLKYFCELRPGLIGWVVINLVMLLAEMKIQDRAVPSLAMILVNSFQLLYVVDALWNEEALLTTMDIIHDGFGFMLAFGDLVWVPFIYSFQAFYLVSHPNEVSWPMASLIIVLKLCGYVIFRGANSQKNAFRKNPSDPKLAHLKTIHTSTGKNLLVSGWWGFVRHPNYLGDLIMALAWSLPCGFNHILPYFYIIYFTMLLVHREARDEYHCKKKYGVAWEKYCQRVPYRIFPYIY
UniProt P20700: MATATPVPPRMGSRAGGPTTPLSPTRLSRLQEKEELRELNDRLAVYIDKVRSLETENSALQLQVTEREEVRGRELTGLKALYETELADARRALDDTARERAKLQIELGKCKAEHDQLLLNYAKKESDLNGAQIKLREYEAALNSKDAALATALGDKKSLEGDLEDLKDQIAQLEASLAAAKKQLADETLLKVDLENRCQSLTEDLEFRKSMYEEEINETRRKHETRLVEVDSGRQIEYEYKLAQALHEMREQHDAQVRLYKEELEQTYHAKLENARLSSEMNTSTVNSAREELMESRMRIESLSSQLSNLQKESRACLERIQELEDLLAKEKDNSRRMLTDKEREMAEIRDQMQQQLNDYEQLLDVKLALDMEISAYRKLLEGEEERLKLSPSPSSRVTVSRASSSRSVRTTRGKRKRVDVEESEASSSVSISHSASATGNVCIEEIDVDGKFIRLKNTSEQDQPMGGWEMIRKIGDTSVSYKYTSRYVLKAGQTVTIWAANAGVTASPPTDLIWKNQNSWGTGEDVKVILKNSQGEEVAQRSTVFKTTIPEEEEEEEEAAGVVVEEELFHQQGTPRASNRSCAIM

Results are given in words; binding and its absence hold for the method and conditions named. Binding seen in cells or lysates may run through a third protein. Some binding calls cover weakened binding; strength is not graded here. For some assays here: Sequences can lack the tags named with a protein.

Assay in all cases: co-IP; HEK293T cells transfected with Flag-tagged CLOCK constructs, CHAPS lysis buffer (120 mM NaCl, 0.3% CHAPS, 1 mM EDTA, 40 mM HEPES pH 7.5), anti-Flag antibody-coupled beads overnight at 4 °C, six washes, western blot of the partners
Test [1] deals with T1, Flag-tagged CLOCK truncation mutant a.a. 1–379 (human) (UniProt O15516).
T1 sequence: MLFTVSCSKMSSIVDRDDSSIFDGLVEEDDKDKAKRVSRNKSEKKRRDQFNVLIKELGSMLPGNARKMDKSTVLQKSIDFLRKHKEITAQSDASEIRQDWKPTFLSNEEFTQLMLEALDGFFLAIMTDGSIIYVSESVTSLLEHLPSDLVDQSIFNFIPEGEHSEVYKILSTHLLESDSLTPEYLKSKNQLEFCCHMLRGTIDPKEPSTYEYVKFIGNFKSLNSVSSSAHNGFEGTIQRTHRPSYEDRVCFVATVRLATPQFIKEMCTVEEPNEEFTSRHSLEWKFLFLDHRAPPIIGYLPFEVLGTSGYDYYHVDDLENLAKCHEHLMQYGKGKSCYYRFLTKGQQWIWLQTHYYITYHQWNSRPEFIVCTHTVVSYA

In test [2] the target is T2, Flag-tagged CLOCK truncation mutant a.a. 1–651 (human) (UniProt O15516).
T2 sequence: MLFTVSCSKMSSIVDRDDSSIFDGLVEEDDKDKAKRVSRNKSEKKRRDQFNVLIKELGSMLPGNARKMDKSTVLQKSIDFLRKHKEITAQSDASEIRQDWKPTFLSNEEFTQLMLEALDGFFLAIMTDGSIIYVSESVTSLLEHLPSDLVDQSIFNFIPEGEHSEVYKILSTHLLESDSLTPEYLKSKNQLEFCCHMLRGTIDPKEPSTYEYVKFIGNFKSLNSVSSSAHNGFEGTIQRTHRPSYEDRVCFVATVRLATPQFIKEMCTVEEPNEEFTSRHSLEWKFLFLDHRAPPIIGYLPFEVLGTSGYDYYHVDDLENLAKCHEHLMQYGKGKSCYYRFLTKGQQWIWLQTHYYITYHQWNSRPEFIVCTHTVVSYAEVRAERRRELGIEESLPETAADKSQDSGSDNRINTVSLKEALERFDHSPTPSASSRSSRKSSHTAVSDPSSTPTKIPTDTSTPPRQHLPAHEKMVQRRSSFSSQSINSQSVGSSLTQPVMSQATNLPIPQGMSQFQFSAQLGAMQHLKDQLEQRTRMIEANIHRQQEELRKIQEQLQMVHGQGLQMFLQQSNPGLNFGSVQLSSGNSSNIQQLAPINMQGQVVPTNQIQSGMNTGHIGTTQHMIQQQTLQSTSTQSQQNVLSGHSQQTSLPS

For test [3], the target named is T3, CLOCK Δ51 (lacks a.a. 514–564), transcriptionally inactive mutant (human) (UniProt O15516).
T3 sequence: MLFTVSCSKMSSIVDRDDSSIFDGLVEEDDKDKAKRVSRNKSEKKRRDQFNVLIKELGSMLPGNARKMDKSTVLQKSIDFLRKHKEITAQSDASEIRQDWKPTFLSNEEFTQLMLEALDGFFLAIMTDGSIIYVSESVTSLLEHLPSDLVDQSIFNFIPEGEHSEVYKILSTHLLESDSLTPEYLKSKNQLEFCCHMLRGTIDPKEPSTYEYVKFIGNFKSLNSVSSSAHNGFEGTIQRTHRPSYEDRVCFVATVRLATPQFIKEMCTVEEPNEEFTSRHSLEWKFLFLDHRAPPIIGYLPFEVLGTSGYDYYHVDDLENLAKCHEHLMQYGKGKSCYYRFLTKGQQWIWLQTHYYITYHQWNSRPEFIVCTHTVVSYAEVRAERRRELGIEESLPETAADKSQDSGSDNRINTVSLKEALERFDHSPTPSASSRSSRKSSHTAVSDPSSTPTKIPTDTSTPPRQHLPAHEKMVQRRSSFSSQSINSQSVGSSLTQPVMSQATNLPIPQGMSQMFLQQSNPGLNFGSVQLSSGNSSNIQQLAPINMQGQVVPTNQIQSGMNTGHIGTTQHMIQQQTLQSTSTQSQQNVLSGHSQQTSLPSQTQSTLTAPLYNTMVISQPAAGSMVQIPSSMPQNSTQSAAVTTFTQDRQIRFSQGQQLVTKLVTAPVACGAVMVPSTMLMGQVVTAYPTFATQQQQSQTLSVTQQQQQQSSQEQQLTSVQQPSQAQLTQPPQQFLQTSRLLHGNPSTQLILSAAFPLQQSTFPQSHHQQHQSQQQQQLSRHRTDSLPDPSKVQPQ

The target of test [4] is T4, Flag-tagged CLOCK truncation mutant a.a. 380–651 (human) (UniProt O15516).
T4 sequence: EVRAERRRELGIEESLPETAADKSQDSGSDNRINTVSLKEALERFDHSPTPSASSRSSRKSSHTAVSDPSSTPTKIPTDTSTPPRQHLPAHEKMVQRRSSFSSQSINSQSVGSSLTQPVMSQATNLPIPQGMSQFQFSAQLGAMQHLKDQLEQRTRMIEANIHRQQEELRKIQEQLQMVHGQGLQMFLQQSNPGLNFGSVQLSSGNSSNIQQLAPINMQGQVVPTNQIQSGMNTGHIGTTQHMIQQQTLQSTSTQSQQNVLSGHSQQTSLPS

Test [5] concerns the target T5, Flag-tagged CLOCK (full-length, wild type) (human) (UniProt O15516).
T5 sequence: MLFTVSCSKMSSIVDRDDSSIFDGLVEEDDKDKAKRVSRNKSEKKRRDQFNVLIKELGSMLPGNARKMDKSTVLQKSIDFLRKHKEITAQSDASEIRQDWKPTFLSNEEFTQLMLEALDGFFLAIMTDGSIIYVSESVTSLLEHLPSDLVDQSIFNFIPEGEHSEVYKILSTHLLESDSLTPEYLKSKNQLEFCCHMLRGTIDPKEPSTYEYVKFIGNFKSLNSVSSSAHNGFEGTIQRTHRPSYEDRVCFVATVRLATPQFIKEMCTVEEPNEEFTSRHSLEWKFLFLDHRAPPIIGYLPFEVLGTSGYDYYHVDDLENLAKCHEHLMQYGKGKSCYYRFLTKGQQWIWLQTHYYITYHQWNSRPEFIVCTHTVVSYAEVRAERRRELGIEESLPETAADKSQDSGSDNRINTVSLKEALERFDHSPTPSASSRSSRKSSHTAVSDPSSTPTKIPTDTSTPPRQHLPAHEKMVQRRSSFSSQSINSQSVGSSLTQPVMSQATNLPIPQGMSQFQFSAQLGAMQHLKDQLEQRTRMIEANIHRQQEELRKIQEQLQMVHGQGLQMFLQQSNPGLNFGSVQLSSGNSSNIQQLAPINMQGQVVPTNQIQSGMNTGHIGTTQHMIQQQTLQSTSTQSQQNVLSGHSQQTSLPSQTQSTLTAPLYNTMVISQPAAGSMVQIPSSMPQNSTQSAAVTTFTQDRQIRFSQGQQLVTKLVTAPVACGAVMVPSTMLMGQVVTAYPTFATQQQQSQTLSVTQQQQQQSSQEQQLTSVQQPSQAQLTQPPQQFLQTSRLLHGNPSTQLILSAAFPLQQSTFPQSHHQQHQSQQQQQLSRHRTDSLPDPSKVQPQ

The target in test [6] is T6, Flag-tagged CLOCK truncation mutant a.a. 380–846 (human) (UniProt O15516).
T6 sequence: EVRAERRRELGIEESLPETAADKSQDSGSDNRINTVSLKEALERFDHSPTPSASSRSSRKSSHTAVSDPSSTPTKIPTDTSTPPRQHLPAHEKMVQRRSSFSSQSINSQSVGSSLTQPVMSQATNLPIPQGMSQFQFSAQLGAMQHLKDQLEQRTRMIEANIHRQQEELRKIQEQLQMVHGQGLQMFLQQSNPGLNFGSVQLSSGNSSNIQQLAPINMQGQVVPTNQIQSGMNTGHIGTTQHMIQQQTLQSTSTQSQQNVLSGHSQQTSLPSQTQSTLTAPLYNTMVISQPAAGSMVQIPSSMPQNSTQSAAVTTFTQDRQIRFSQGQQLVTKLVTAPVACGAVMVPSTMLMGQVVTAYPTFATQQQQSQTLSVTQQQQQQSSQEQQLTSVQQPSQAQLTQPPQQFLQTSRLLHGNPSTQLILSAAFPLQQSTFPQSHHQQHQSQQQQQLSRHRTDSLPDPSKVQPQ

In test [7] the target is T7, Flag-tagged CLOCK truncation mutant a.a. 652–846 (human) (UniProt O15516).
T7 sequence: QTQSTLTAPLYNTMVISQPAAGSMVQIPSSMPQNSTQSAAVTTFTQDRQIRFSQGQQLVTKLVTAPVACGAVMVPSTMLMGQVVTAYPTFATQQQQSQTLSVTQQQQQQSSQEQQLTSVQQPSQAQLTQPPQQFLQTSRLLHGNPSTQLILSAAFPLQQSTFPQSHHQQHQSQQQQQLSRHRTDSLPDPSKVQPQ

Consider “KAP1, heterochromatin-associated protein (from UniProt Q13263 1-835)”, for which the binding entry in test [1], in test [2] and in test [3] was “binds” throughout.
Take “LBR, nuclear lamina protein (from UniProt Q14739 1-615)”: the binding entry in test [4] and in test [2] was “binds” in each case.
For “Lamin B1, nuclear lamina protein (from UniProt P20700 1-586)”, the binding entry in test [1], in test [2] and in test [3] was “binds” in each case.

B1: PER3, core circadian clock factor (protein, UniProt P56645 1-1201)
chain: MPRGEAPGPGRRGAKDEALGEESGERWSPEFHLQRKLADSSHSEQQDRNRVSEELIMVVQEMKKYFPSERRNKPSTLDALNYALRCVHSVQANSEFFQILSQNGAPQADVSMYSLEELATIASEHTSKNTDTFVAVFSFLSGRLVHISEQAALILNRKKDVLASSHFVDLLAPQDMRVFYAHTARAQLPFWNNWTQRAARYECAPVKPFFCRIRGGEDRKQEKCHSPFRIIPYLIHVHHPAQPELESEPCCLTVVEKIHSGYEAPRIPVNKRIFTTTHTPGCVFLEVDEKAVPLLGYLPQDLIGTSILSYLHPEDRSLMVAIHQKVLKYAGHPPFEHSPIRFCTQNGDYIILDSSWSSFVNPWSRKISFIIGRHKVRTSPLNEDVFATKIKKMNDNDKDITELQEQIYKLLLQPVHVSVSSGYGSLGSSGSQEQLVSIASSSEASGHRVEETKAEQMTLQQVYASVNKIKNLGQQLYIESMTKSSFKPVTGTRTEPNGGGECKTFTSFHQTLKNNSVYTEPCEDLRNDEHSPSYQQINCIDSVIRYLKSYNIPALKRKCISCTNTTSSSSEEDKQNHKADDVQALQAGLQIPAIPKSEMPTNGRSIDTGGGAPQILSTAMLSLGSGISQCGYSSTIVHVPPPETARDATLFCEPWTLNMQPAPLTSEEFKHVGLTAAVLSAHTQKEEQNYVDKFREKILSSPYSSYLQQESRSKAKYSYFQGDSTSKQTRSAGCRKGKHKRKKLPEPPDSSSSNTGSGPRRGAHQNAQPCCPSAASSPHTSSPTFPPAAMVPSQAPYLVPAFPLPAATSPGREYAAPGTAPEGLHGLPLSEGLQPYPAFPFPYLDTFMTVFLPDPPVCPLLSPSFLPCPFLGATASSAISPSMSSAMSPTLDPPPSVTSQRREEEKWEAQSEGHPFITSRSSSPLQLNLLQEEMPRPSESPDQMRRNTCPQTEYCVTGNNGSESSPATTGALSTGSPPRENPSHPTASALSTGSPPMKNPSHPTASALSTGSPPMKNPSHPTASTLSMGLPPSRTPSHPTATVLSTGSPPSESPSRTGSAASGSSDSSIYLTSSVYSSKISQNGQQSQDVQKKETFPNVAEEPIWRMIRQTPERILMTYQVPERVKEVVLKEDLEKLESMRQQQPQFSHGQKEELAKVYNWIQSQTVTQEIDIQACVTCENEDSADGAATSCGQVLVEDSC
B1: the binding entry in test [5] is “binds”; in test [6], “no binding”; in test [7], “no binding”; in test [4], “no binding”; in test [1], “no binding”; in test [2], “no binding”.
